# Data published in PubChem BioAssay AID485364 (National Center for Advancing Translational Sciences (NCATS), 2010).
# In all, about 360,000 compounds went through this assay and about 11,000 (3.1%) were called active. Inconclusive results, whose numbers are uncertain, are shown with a selection of clear calls. Calls come from the whole dose curve; as a rule, active = well fitted inhibition curve with a large enough effect; inconclusive = small, poorly fitted or top-dose-only effect; inactive = no such curve, though single readings can be large or run the other way. No potency is given beside an inconclusive call; the fits are too rough.
# Target: Schistosoma mansoni thioredoxin glutathione reductase (TGR) (UniProt Q962Y6)
# Assay: qHTS Assay for the Inhibitors of Schistosoma Mansoni Peroxiredoxins; note: nearly all actives have a fitted effect of over 60% in size
# Settings: purified TGR, DTNB reduction, TNB absorbance 405 nm; series mostly up to 114 µM
# Method in brief: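 First, TGR (20 nM dispensed) and NADPH were mixed with compound. Second, a 15 min room-temperature incubation followed. Third, further NADPH and then DTNB were added to start the reaction. Finally, TNB absorbance was monitored kinetically.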
# Potency is the fitted concentration of half-maximal effect; tags give direction and shape of the fitted curve.
row,SMILES,Potency
1,COc1ccc(CNC(=O)COC(=O)/C=C/c2ccco2)cc1,active: 35.5 µM
2,C=C(C)CSc1cc(C)nc2c(-c3ccccc3)c(C)nn12,"inconclusive [inhibitor, partial curve]"
3,N#Cc1ccccc1Cn1c(=O)n(Cc2ccc(C(=O)NCc3ccco3)cc2)c(=O)c2ccccc21,inactive
4,CCOC(=O)C1=C(O)/C(=C\c2ccc(O)c(OCC)c2)N=C1C,active: 39.8 µM
5,CN(C)S(=O)(=O)c1cccc(C(=O)N(Cc2ccc(F)cc2)Cc2ccco2)c1,"inconclusive [inhibitor, partial curve]"
6,Cc1cc(C(=O)NCc2cc(C(=O)O)oc2C)c(C)o1,"inconclusive [inhibitor, full curve, poor fit]"
7,O=C(C1=C(c2ccccc2)C(=O)c2ccccc2C1=O)c1ccccc1,inactive
8,COC(=O)CCCC1=CC2=C(c3ccccc3)C(=O)C(C)(OC(=O)C3CCCC3)C(=O)C2=CN1Cc1ccco1 (centres undefined),active: 22.4 µM
9,Nc1nc(SCC(=O)N2N=C3/C(=C/c4ccco4)CCCC3C2c2ccco2)n[nH]1 (centres undefined),"inconclusive [inhibitor, partial curve]"
10,Cc1nnc2n(c1=O)C(CS(=O)(=O)c1ccc3ccccc3c1)CS2 (centres undefined),"inconclusive [inhibitor, full curve, poor fit]"
11,O=C(O)c1ccc(COc2c(F)c(F)c(F)c(F)c2F)o1,active: 44.7 µM
12,Cc1cc(C(=O)NCCc2ccc(Cl)cc2)c2c(C)nn(-c3ccccc3)c2n1,inactive
13,Cc1ccc(NC(=O)c2nc(S(=O)(=O)Cc3ccc(F)cc3)ncc2Cl)cc1C,"inconclusive [inhibitor, full curve]"
14,CC(NC(=O)CN(C)Cc1cccc(Cl)c1)c1ccccc1 (centres undefined),inactive
15,CC1N(C)c2cc(NC(=O)c3ccco3)ccc2C1(C)C (centres undefined),"inconclusive [inhibitor, partial curve]"
16,CNC(=S)Nc1ccc(C23CC4CC(CC(C4)C2)C3)cc1,inactive
17,O=C(O)c1ccc(-c2nc3ccccc3s2)o1,"inconclusive [inhibitor, partial curve]"
18,O=C(NC(=S)NC1CCSC1=O)c1ccc([N+](=O)[O-])cc1 (centres undefined),"inconclusive [inhibitor, partial curve, poor fit]"
19,Oc1cncc(Cc2ccccc2)c1,active: 31.6 µM
20,COc1ccc(OC)c(CCNC(=O)CCCn2c(=O)c3cccn3c3cccnc32)c1,inactive
21,O=C(Cc1csc(N2CCOCC2)n1)N/N=C/c1ccc(O)c(O)c1O,"inconclusive [inhibitor, partial curve]"
22,Cc1ccc(N2CC(C(=O)OCC(=O)c3c(N)n(CC(C)C)c(=O)n(C)c3=O)CC2=O)cc1 (centres undefined),"inconclusive [inhibitor, partial curve]"
23,CC1CCc2c(sc3nc(SCC(=O)NCc4ccco4)nc(N)c23)C1 (centres undefined),"inconclusive [inhibitor, partial curve]"

row,SMILES,Potency
1,CCOC(=O)c1cc(-c2ccco2)nc2c1c(C)nn2-c1ccccc1,active: 8.91 µM
2,N#CC(C#N)=NNc1ccc(S(=O)(=O)N2CCCCC2)cc1,"inconclusive [inhibitor, partial curve]"
3,CC(C)(C)c1ccc(C(=O)N2CCC(C(=O)NCc3ccco3)CC2)cc1,"inconclusive [inhibitor, partial curve]"
4,O=C(O)CC1=C(Nc2ccccc2)C(=O)N(c2ccccc2)C1c1ccc(F)cc1 (centres undefined),"inconclusive [inhibitor, partial curve]"
5,COc1ccc(C(=O)CC2C(=O)N(C)C(=O)N(C)C2=O)cc1,active: 25.1 µM
6,COCc1ccc(C(=O)N2CCC(CCC(=O)Nc3cccc(C)c3)CC2)s1,"inconclusive [inhibitor, partial curve, poor fit]"
7,COc1ccc(/C=C/c2nnc(NC(=O)CC(C)C)s2)cc1,inactive
8,Cc1ccc(C2=NC(C)(C)N=C2SCC(=O)Nc2ccc(Cl)cc2)cc1,"inconclusive [inhibitor, full curve, poor fit]"
9,Cc1c(CN(C)C)c2c(n1C)C(=O)c1ccc(Br)cc1-2,"inconclusive [inhibitor, full curve]"
10,CC(=O)c1cccc(NC(=S)NCc2ccco2)c1,"inconclusive [inhibitor, partial curve]"
11,O=C1CC(N2CCCCCC2)C(=O)N1c1ccc(F)cc1 (centres undefined),active: 10 µM
12,Cc1ccc(NC(=S)NC(NC(=O)N(C)C)C(Cl)(Cl)Cl)cc1 (centres undefined),"inconclusive [inhibitor, partial curve]"
13,COc1ccccc1CNC(=O)CS(=O)Cc1nc(-c2ccccc2C)oc1C (centres undefined),"inconclusive [inhibitor, partial curve, poor fit]"
14,Cc1ccc(N2C(=O)[C@@H]3[C@H](C2=O)C2c4ccccc4C=CN2[C@@H]3C(=O)c2ccco2)c(C)c1 (some centres undefined),"inconclusive [inhibitor, single point]"
15,CN(C)c1ccc(NC(=O)C2C3C=CC(C3)C2C(=O)O)cc1 (centres undefined),"inconclusive [inhibitor, partial curve]"
16,Clc1ccc(C2[C@H]3CN(Cc4ccc(-c5ccccc5)cc4)[C@H](c4ccccc4)C34CC2(c2ccccc2)C4)cn1 (some centres undefined),"inconclusive [inhibitor, partial curve]"
17,Cn1nnnc1SC1CC(=O)N(c2ccccc2)C1=O (centres undefined),active: 1.58 µM
18,Cc1cccc(N2CCN(C(=O)Cn3c(C)c4cnn(-c5ccccc5)c(=O)c4c3C)CC2)c1C,inactive
19,CC(=O)SC1CC(=O)N(c2c(C)cccc2C)C1=O (centres undefined),active: 14.1 µM
20,c1ccc(-c2ccc3c(c2)c2c4n3CCN=C4CCC2)cc1,"inconclusive [inhibitor, full curve, poor fit]"
21,O=C(CC1C(=O)NCCN1Cc1ccc(F)cc1Cl)NC1CCCCCCC1 (centres undefined),"inconclusive [inhibitor, partial curve]"
22,CCc1ccc(N2C(=O)CC(=O)NC2=O)cc1,"inconclusive [inhibitor, full curve, poor fit]"
23,O=C(/C=C/c1ccc(Cl)cc1)NCCc1ccccc1,inactive

row,SMILES,Potency
1,COc1ccc(CN2CCNC(=O)C2CC(=O)N(C)C2CCOCC2)c(F)c1 (centres undefined),"inconclusive [inhibitor, partial curve]"
2,O=C(Nc1ccc(Cl)cc1)[C@@H]1[C@@H]2C(=O)N(c3ccc(Cl)cc3)C(=O)[C@@H]2[C@H]2C=CC=NN21,active: 50.1 µM
3,COCCn1c(SCC(=O)N2CCCc3ccccc32)nnc1-c1ccco1,"inconclusive [inhibitor, partial curve]"
4,C=C(C)CNC(=S)Nc1cccc2cnccc12,"inconclusive [inhibitor, partial curve]"
5,Cc1ccccc1Cn1c(=O)n(Cc2ccco2)c(=O)c2sc3ccccc3c21,"inconclusive [inhibitor, partial curve]"
6,COc1ccc(/C=C/C(=O)c2ccc[nH]2)cc1OC,inactive
7,CC(C)C(OC(=O)c1cc2sccc2n1C)C(=O)NCC1CCCO1 (centres undefined),"inconclusive [inhibitor, single point]"
8,Cc1cc(C)cc(NC(=S)NCC2CCN(C(C)c3ccccc3)C2)c1 (centres undefined),"inconclusive [inhibitor, partial curve]"
9,CC(=O)c1ccc(-c2ccc(Cn3c(C)nc4cc(N)c(C)nc43)cc2)cc1,"inconclusive [inhibitor, partial curve]"
10,COc1cccc(C2C(C(=O)c3cc4ccccc4o3)=C(O)C(=O)N2CCN2CCOCC2)c1 (centres undefined),active: 39.8 µM
11,COc1ccc(N(C=O)C(=S)SC)cc1,"inconclusive [inhibitor, partial curve]"
12,O=C(NCCN1CCOCC1)c1ccc2c(c1)N(Cc1cccc(F)c1)C(=O)c1ccccc1S2,"inconclusive [inhibitor, full curve, poor fit]"
13,Cc1ccc(-n2c(O)c(/C=N/NC(=O)c3ccncc3)c(=O)[nH]c2=O)cc1,"inconclusive [inhibitor, partial curve]"
14,CSc1ncccc1C(=O)OCc1ccc(Br)cc1,"inconclusive [inhibitor, partial curve]"
15,CCOC(=O)Cc1nnc(Nc2ccc(C)cc2)c2ccccc12,inactive
16,CC(=O)Oc1cccc(N2C(=O)C3C4C=CC(CC4)C3C2=O)c1 (centres undefined),active: 44.7 µM
17,NC(=O)c1c(NC(=O)CN2CCN(S(=O)(=O)c3ccccc3)CC2)sc2c1CCC2,"inconclusive [inhibitor, partial curve]"
18,Nc1c(C(=O)NCc2ccco2)c2nc3ccccc3nc2n1CCc1ccccc1,active: 20 µM
19,COc1ccccc1CNC(=O)CCS(=O)(=O)c1cccc2nonc12,active: 44.7 µM
20,N#C/C(=C/c1ccc(N2CCCCCC2)o1)c1cccc(F)c1,"inconclusive [inhibitor, partial curve]"
21,COc1ccc(C[C@H]2CN3C(=NC[C@@H]3Cc3ccccc3)N2CCNC(=O)c2ccc(C)c(Br)c2)cc1,active: 11.2 µM
22,NC(=O)[C@@H]1CCNc2c(I)cc([N+](=O)[O-])cc2C(=O)N[C@@H](CO)C(=O)N[C@@H](Cc2ccc(O)cc2)C(=O)N1,"inconclusive [inhibitor, partial curve]"
23,COc1ccc(CN(Cc2ccco2)C(=O)COc2ccccc2OC)cc1,inactive
